Laboratory results from PubChem BioAssay AID254 (DTP/NCI, 2004).
Toxic doses and inconclusive results are not listed. Some entries of the source have several records that differ or are many. This is not the full list of results. An entry can have further records. Values given together repeat one measurement across runs, samples, wells, individuals or studies.

Tested on: L1210 leukemia iv in BDF1 mice, survival T/C
Experiment: NCI In Vivo Anticancer Drug Screen. Data for tumor model L1210 Leukemia (intravenous) in B6D2F1 (BDF1) mice
Conditions: endpoint: mean survival time; dose: 12.0 mg/kg/injection; schedule: Q01DX001 (ip); vehicle: carboxymethylcellulose (CMC); higher = longer survival
Method: The antitumor activity of compounds was measured in mice bearing transplantable tumors. Survival or tumor size were measured and the results are expressed as the measurement made in the treated group (T) divided by the measurement made in the vehicle treated control group (C). The tumor model used in this assay is L1210 Leukemia (intravenous) in B6D2F1 (BDF1) mice

With `O=NN(CCCl)C(=O)N[C@H]1CCCC[C@H]1Cl` the T/C was 121 % of control and 157 % of control.
